# Source: the supplement of paper PMC12217912
# The other results are listed elsewhere or left out. Sequences were assembled here from the parent chain. Values near 0.05 are background.
# B1: TEV protease; numbered along this chain (parent)
# chain: MGESLFKGPRDYNPISSSICHLTNESDGHTTSLYGIGFGPFIITNKHLFRRNNGTLVVQSLHGVFKVKDTTTLQQHLVDGRDMIIIRMPKDFPPFPQKLKFREPQREERICLVTTNFQTKSMSSMVSDTSCTFPSGDGIFWKHWIQTKDGQCGSPLVSTRDGFIVGIHSASNFTNTNNYFTSVPKNFMELLTNQEAQQWVSGWRLNADSVLWGGHKVFMVKPEEPFQPVKEATQL
# Variants of: B1
# Assay: raw area under fraction-flipped curve 0-4 h after induction (AUC4h, not background-subtracted), DNA-recorder readout of cleavage of the substrate (dimensionless); higher = more cleavage of the substrate by the protease variant
# Conditions: temperature: 34 °C; time window: 0-4 h after rhamnose induction
# Protocol: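 In vivo DNA recorder in E. coli TOP10(DE3) ΔrhaA at 34 °C. Each TEVp single-site mutant (parent TEVp 0) is paired with a single-site variant of the 7-mer TEVs (canonical ENLYFQ|S). The substrate sits between flexible linkers in a Bxb1-sfGFP-TEVs-SsrA fusion, so cleavage stabilises Bxb1 and speeds flipping of a recombination array, read by NGS. The value is the raw area under the fraction-flipped curve over 0-4 h after rhamnose induction (AUC4h), with ≥20 reads per time point. It is not background-subtracted; inactive controls average about 0.047.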
# 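Further: Bxb1 expression induced with 0.2% (w/v) L-rhamnose at OD600 near 0.5, cultures sampled hourly, flipped fraction per protease–substrate barcode pair counted by paired-end Illumina sequencing.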
variant,measurement,value
MGESLFKGPQDYNPISSSICHLTNESDGHTTSLYGIGFGPFIITNKHLFRRNNGTLVVQSLHGVFKVKDTTTLQQHLVDGRDMIIIRMPKDFPPFPQKLKFREPQREERICLVTTNFQTKSMSSMVSDTSCTFPSGDGIFWKHWIQTKDGQCGSPLVSTRDGFIVGIHSASNFTNTNNYFTSVPKNFMELLTNQEAQQWVSGWRLNADSVLWGGHKVFMVKPEEPFQPVKEATQL [R10Q],area with substrate ENLYAQS,0.06
same,area with substrate ENLYDQS,0.0516
same,area with substrate ENLYEQS,0.0677
same,area with substrate ENLYGQS,0.0637
same,area with substrate ENLYHQS,0.0618
same,area with substrate ENLYIQS,0.137
same,area with substrate ENLYKQS,0.0748
same,area with substrate ENLYLQS,0.0711
same,area with substrate ENLYNQS,0.0616
same,area with substrate ENLYPQS,0.0851
same,area with substrate ENLYQQS,0.0894
same,area with substrate ENLYTQS,0.077
same,area with substrate ENLYVQS,0.114
same,area with substrate ENLYWQS,0.0755
MGESLFKGPEDYNPISSSICHLTNESDGHTTSLYGIGFGPFIITNKHLFRRNNGTLVVQSLHGVFKVKDTTTLQQHLVDGRDMIIIRMPKDFPPFPQKLKFREPQREERICLVTTNFQTKSMSSMVSDTSCTFPSGDGIFWKHWIQTKDGQCGSPLVSTRDGFIVGIHSASNFTNTNNYFTSVPKNFMELLTNQEAQQWVSGWRLNADSVLWGGHKVFMVKPEEPFQPVKEATQL [R10E],area with substrate ENLYAQS,0.05
same,area with substrate ENLYDQS,0.0681
same,area with substrate ENLYEQS,0.0627
same,area with substrate ENLYGQS,0.0623
same,area with substrate ENLYHQS,0.0751
same,area with substrate ENLYIQS,0.111
same,area with substrate ENLYKQS,0.0619
same,area with substrate ENLYMQS,0.0868
same,area with substrate ENLYNQS,0.0511
same,area with substrate ENLYPQS,0.0803
same,area with substrate ENLYQQS,0.0533
same,area with substrate ENLYRQS,0.0582
same,area with substrate ENLYSQS,0.064
same,area with substrate ENLYTQS,0.0927
same,area with substrate ENLYVQS,0.103
same,area with substrate ENLYWQS,0.0718
same,area with substrate ENLYYQS,0.0591
MGESLFKGPHDYNPISSSICHLTNESDGHTTSLYGIGFGPFIITNKHLFRRNNGTLVVQSLHGVFKVKDTTTLQQHLVDGRDMIIIRMPKDFPPFPQKLKFREPQREERICLVTTNFQTKSMSSMVSDTSCTFPSGDGIFWKHWIQTKDGQCGSPLVSTRDGFIVGIHSASNFTNTNNYFTSVPKNFMELLTNQEAQQWVSGWRLNADSVLWGGHKVFMVKPEEPFQPVKEATQL [R10H],area with substrate ENLYAQS,0.0811
same,area with substrate ENLYDQS,0.0658
same,area with substrate ENLYEQS,0.0689
same,area with substrate ENLYGQS,0.0777
same,area with substrate ENLYHQS,0.0622
same,area with substrate ENLYIQS,0.116
same,area with substrate ENLYKQS,0.0664
same,area with substrate ENLYLQS,0.0725
same,area with substrate ENLYMQS,0.0854
same,area with substrate ENLYPQS,0.0663
same,area with substrate ENLYQQS,0.0654
same,area with substrate ENLYRQS,0.0563
same,area with substrate ENLYTQS,0.066
same,area with substrate ENLYWQS,0.0892
MGESLFKGPRDYNPISSSMCHLTNESDGHTTSLYGIGFGPFIITNKHLFRRNNGTLVVQSLHGVFKVKDTTTLQQHLVDGRDMIIIRMPKDFPPFPQKLKFREPQREERICLVTTNFQTKSMSSMVSDTSCTFPSGDGIFWKHWIQTKDGQCGSPLVSTRDGFIVGIHSASNFTNTNNYFTSVPKNFMELLTNQEAQQWVSGWRLNADSVLWGGHKVFMVKPEEPFQPVKEATQL [I19M],area with substrate ENLYAQS,0.0841
same,area with substrate ENLYCQS,0.0817
same,area with substrate ENLYDQS,0.0664
same,area with substrate ENLYEQS,0.0669
same,area with substrate ENLYGQS,0.0723
same,area with substrate ENLYHQS,0.0593
same,area with substrate ENLYIQS,0.124
same,area with substrate ENLYKQS,0.0778
same,area with substrate ENLYMQS,0.0928
same,area with substrate ENLYNQS,0.0583
same,area with substrate ENLYPQS,0.078
same,area with substrate ENLYQQS,0.0422
same,area with substrate ENLYRQS,0.0602
same,area with substrate ENLYVQS,0.118
same,area with substrate ENLYWQS,0.0842
same,area with substrate ENLYYQS,0.0663
MGESLYKGPRDYNPISSSICHLTNESDGHTTSLYGIGFGPFIITNKHLFRRNNGTLVVQSLHGVFKVKDTTTLQQHLVDGRDMIIIRMPKDFPPFPQKLKFREPQREERICLVTTNFQTKSMSSMVSDTSCTFPSGDGIFWKHWIQTKDGQCGSPLVSTRDGFIVGIHSASNFTNTNNYFTSVPKNFMELLTNQEAQQWVSGWRLNADSVLWGGHKVFMVKPEEPFQPVKEATQL [F6Y],area with substrate ENLYAQS,0.0805
same,area with substrate ENLYEQS,0.04
same,area with substrate ENLYKQS,0.0277
same,area with substrate ENLYLQS,0.066
same,area with substrate ENLYMQS,0.047
same,area with substrate ENLYNQS,0.084
same,area with substrate ENLYPQS,0.0656
same,area with substrate ENLYQQS,0.073
same,area with substrate ENLYTQS,0.0526
MGESLMKGPRDYNPISSSICHLTNESDGHTTSLYGIGFGPFIITNKHLFRRNNGTLVVQSLHGVFKVKDTTTLQQHLVDGRDMIIIRMPKDFPPFPQKLKFREPQREERICLVTTNFQTKSMSSMVSDTSCTFPSGDGIFWKHWIQTKDGQCGSPLVSTRDGFIVGIHSASNFTNTNNYFTSVPKNFMELLTNQEAQQWVSGWRLNADSVLWGGHKVFMVKPEEPFQPVKEATQL [F6M],area with substrate ENLYAQS,0.0886
same,area with substrate ENLYDQS,0.0522
same,area with substrate ENLYEQS,0.0624
same,area with substrate ENLYGQS,0.0708
same,area with substrate ENLYKQS,0.0634
same,area with substrate ENLYMQS,0.0838
same,area with substrate ENLYNQS,0.075
same,area with substrate ENLYRQS,0.0621
same,area with substrate ENLYVQS,0.0775
same,area with substrate ENLYWQS,0.106
MGEWLFKGPRDYNPISSSICHLTNESDGHTTSLYGIGFGPFIITNKHLFRRNNGTLVVQSLHGVFKVKDTTTLQQHLVDGRDMIIIRMPKDFPPFPQKLKFREPQREERICLVTTNFQTKSMSSMVSDTSCTFPSGDGIFWKHWIQTKDGQCGSPLVSTRDGFIVGIHSASNFTNTNNYFTSVPKNFMELLTNQEAQQWVSGWRLNADSVLWGGHKVFMVKPEEPFQPVKEATQL [S4W],area with substrate ENLYAQS,0.0712
same,area with substrate ENLYCQS,0.0849
same,area with substrate ENLYDQS,0.0706
same,area with substrate ENLYEQS,0.0447
same,area with substrate ENLYGQS,0.0732
same,area with substrate ENLYHQS,0.0601
same,area with substrate ENLYIQS,0.105
same,area with substrate ENLYKQS,0.0304
same,area with substrate ENLYLQS,0.0671
same,area with substrate ENLYMQS,0.0833
same,area with substrate ENLYNQS,0.0818
same,area with substrate ENLYPQS,0.0705
same,area with substrate ENLYRQS,0.0707
same,area with substrate ENLYSQS,0.0631
same,area with substrate ENLYTQS,0.0629
same,area with substrate ENLYVQS,0.0812
same,area with substrate ENLYWQS,0.0757
same,area with substrate ENLYYQS,0.0661
MGESLFKGPRDYNPISSSICRLTNESDGHTTSLYGIGFGPFIITNKHLFRRNNGTLVVQSLHGVFKVKDTTTLQQHLVDGRDMIIIRMPKDFPPFPQKLKFREPQREERICLVTTNFQTKSMSSMVSDTSCTFPSGDGIFWKHWIQTKDGQCGSPLVSTRDGFIVGIHSASNFTNTNNYFTSVPKNFMELLTNQEAQQWVSGWRLNADSVLWGGHKVFMVKPEEPFQPVKEATQL [H21R],area with substrate ENLYAQS,0.0676
same,area with substrate ENLYDQS,0.0635
same,area with substrate ENLYEQS,0.0655
same,area with substrate ENLYGQS,0.0601
same,area with substrate ENLYHQS,0.058
same,area with substrate ENLYIQS,0.109
same,area with substrate ENLYKQS,0.0545
same,area with substrate ENLYLQS,0.102
same,area with substrate ENLYMQS,0.0837
same,area with substrate ENLYPQS,0.0719
same,area with substrate ENLYQQS,0.0384
same,area with substrate ENLYRQS,0.066
same,area with substrate ENLYSQS,0.071
same,area with substrate ENLYTQS,0.0828
same,area with substrate ENLYVQS,0.0898
same,area with substrate ENLYWQS,0.0676
MDESLFKGPRDYNPISSSICHLTNESDGHTTSLYGIGFGPFIITNKHLFRRNNGTLVVQSLHGVFKVKDTTTLQQHLVDGRDMIIIRMPKDFPPFPQKLKFREPQREERICLVTTNFQTKSMSSMVSDTSCTFPSGDGIFWKHWIQTKDGQCGSPLVSTRDGFIVGIHSASNFTNTNNYFTSVPKNFMELLTNQEAQQWVSGWRLNADSVLWGGHKVFMVKPEEPFQPVKEATQL [G2D],area with substrate ENLYAQS,0.0885
same,area with substrate ENLYDQS,0.0619
same,area with substrate ENLYEQS,0.0803
same,area with substrate ENLYGQS,0.0785
same,area with substrate ENLYHQS,0.0677
same,area with substrate ENLYIQS,0.112
same,area with substrate ENLYKQS,0.0736
same,area with substrate ENLYMQS,0.0884
same,area with substrate ENLYNQS,0.0636
same,area with substrate ENLYPQS,0.0612
same,area with substrate ENLYQQS,0.0562
same,area with substrate ENLYRQS,0.0586
same,area with substrate ENLYVQS,0.101
same,area with substrate ENLYYQS,0.0514
